# Laboratory results taken from publication PMC4336329 (PLoS ONE, 2015).
# The whole screen tested about 310,000 compounds, of which about 2,200 (0.71%) showed an effect of 50% or more. The effect is printed as a negative number. The list shows a part of the results.
# Target: human ether-à-go-go-related gene (hERG) potassium channel (human, UniProt Q12809)
# Test: primary screen, population patch clamp on CHO cells stably expressing hERG
# Sequence of human ether-à-go-go-related gene (hERG) potassium channel (Q12809 whole entry, looked up): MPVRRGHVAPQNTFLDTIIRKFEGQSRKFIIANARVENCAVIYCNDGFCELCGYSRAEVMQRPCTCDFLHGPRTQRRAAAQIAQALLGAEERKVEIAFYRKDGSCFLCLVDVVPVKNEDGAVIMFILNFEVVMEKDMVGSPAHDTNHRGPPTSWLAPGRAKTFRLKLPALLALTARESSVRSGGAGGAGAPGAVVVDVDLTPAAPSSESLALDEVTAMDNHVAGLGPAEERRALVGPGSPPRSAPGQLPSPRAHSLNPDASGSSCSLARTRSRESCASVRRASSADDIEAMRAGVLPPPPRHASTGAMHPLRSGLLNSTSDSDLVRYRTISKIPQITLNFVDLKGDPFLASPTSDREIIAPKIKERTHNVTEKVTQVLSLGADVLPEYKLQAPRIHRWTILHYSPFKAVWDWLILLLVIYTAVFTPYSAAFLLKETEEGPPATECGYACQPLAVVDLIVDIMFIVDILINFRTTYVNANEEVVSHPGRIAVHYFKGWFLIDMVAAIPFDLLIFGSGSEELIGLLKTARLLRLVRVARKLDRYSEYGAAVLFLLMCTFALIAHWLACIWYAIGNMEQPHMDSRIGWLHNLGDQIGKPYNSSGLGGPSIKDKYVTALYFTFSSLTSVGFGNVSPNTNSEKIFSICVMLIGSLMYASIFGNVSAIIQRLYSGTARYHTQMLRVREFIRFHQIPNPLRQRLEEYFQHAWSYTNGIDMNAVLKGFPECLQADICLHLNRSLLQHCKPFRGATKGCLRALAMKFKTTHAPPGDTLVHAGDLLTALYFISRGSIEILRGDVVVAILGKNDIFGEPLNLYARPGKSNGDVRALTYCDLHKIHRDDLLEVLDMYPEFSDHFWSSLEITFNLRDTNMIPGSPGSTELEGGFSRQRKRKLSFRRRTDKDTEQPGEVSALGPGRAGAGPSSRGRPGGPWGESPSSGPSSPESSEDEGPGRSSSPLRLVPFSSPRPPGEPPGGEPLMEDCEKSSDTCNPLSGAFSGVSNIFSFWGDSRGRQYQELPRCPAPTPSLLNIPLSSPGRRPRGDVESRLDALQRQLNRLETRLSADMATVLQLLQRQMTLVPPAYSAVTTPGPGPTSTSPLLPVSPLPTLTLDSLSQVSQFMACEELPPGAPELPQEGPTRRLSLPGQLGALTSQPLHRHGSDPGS
row,Structure (SMILES),"hERG current change (%, negative = inhibition) at 1uM [%]"
1,CCN(CC)C(=O)C1CCCN(C(=O)c2cc(COc3cccc(OC)c3)on2)C1 (stereo not drawn),-8.57
2,CN1CCN(C(=O)c2cc(=O)c3cc(Cl)cc(Cl)c3o2)CC1,-5.7
3,COc1cc2nc(/C=C/c3ccc(N(C)C)cc3)sc2cc1SC,7.27
4,COC(=O)COc1ccc(S(=O)(=O)NCc2cccnc2)cc1,8.98
5,Cc1ccc2nc(Nc3nc(CSc4nnc(C)s4)cc(=O)[nH]3)nc(C)c2c1,3.97
6,O=[N+]([O-])c1ccc(N/N=C\c2ccccc2OCc2ccccc2)cc1,16.9
7,CCOc1cc(/C=C2/C(=N)N3OC(C)=CC3=NC2=O)ccc1OC(=O)c1ccco1,2.91
8,O=C(Nc1ccccc1C(=O)Nc1nncs1)c1ccccc1,19.9
9,Nc1ncnc2nc(SCCN3CCCCC3)[nH]c12,9.84
10,O=C(Nc1sccc1C(=O)N1CCOCC1)c1cccnc1,4.54
11,CS(=O)(=O)c1ccccc1-c1nnc(NC(=O)CCS(=O)(=O)c2ccc(Cl)cc2)o1,-12.2
12,Cn1cnnc1SCc1ccc(-c2ccc(Br)cc2)o1,9.14
13,CCOc1ccc(S(=O)(=O)NCCC2=CCCCC2)c2ccccc12,7.21
14,O=C(Cn1nnc(-c2ccccc2)n1)NNC(=O)c1ccccc1,-1.02
15,Cc1ccc(NC(=O)C2CCCN(S(=O)(=O)c3ccc4c(c3)oc(=O)n4C)C2)nc1 (stereo not drawn),5.25
16,COc1ccc(CCNC(=O)CSc2nn3c(=O)c(C)nnc3s2)cc1OC,10.1
17,O=S(=O)(c1cccc2nsnc12)N1CCc2ccccc2C1,0.545
18,Cc1cc(Br)c(S(=O)(=O)NCCN2CCOCC2)cc1C,12
19,CCOC(=O)c1sc2nc(N3CCCC3)c3c(c2c1N)CC(C)(C)OC3,6.24
20,CCc1ccc(NC(=O)Cn2ncn3c(cc4ccccc43)c2=O)cc1,4.19
21,Cc1c(OC(C)C(=O)NCCCn2ccnc2)ccc2c3c(c(=O)oc12)CCC3 (stereo not drawn),4.05
22,CCOc1ccccc1Nc1nnc(SCC(=O)N2CCCC2)s1,4.61
23,CC(C)Cn1c(SCC(=O)N(C)C2CCS(=O)(=O)C2)nc2cc(Cl)ccc2c1=O (stereo not drawn),4.62
24,Cc1cc(C)c(S(=O)(=O)NC2CC(C)(C)NC(C)(C)C2)cc1Br,3.29
